The list shows a part of the results. The data describe in vitro nicking of single-stranded DNA by Rep domains at 3 µM enzyme and 37 °C for 1 h; the strands have 90 letters, of which the middle is given. The score is log2 (uncut reads / reads without enzyme); the lower, the more was cut; hits are not called. Shares of all reads are compared, so uncut sequences can rise above 0 when many others are cut.

In the test the test system is T1, Rep nickase domain of wheat dwarf virus.
T1 sequence (protein, residues 1-137, tag omitted): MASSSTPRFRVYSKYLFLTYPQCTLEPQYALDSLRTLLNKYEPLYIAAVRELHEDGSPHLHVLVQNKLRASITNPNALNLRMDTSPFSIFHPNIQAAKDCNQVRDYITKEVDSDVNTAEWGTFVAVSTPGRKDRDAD
Kind of test: uncleaved DNA left, log2 of reads against the no-enzyme library (log2 ratio); higher = less cleavage (more negative = more Rep cleavage of the k-mer); sequences stand for … in CTCGTCCG…ACCGGAGA
The procedure:
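A pool of 90-nt single-stranded DNAs with seven random bases just before the constant AC of the nick site (name = the seven bases) was cut by 3 µM recombinant His6-SUMO-tagged Rep nickase domain (300 nM DNA, 50 mM HEPES pH 8.0, 50 mM NaCl, 1 mM MnCl2, 1 h, 37 °C, three replicates). Uncut DNA was amplified and sequenced.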
Regarding CTGGGAG, the “uncleaved DNA left (log2)” value was -0.0104.
The figure for TGATATT is -2.72.
With TAAATCG, the “uncleaved DNA left (log2)” value is -0.0876.
Regarding GGCCGCC, the “uncleaved DNA left (log2)” value is -0.0162.
Regarding CCCACGA, the “uncleaved DNA left (log2)” value was -0.0873.
The figure for TTGATTA is -0.0206; for AAAATGG it is 0.073; for TGTAAGT it is 0.0665.
Regarding AGGATCT, the “uncleaved DNA left (log2)” value worked out at 0.00842.
Consider ATGATAA, for which the “uncleaved DNA left (log2)” value is 0.0112.
For the sequence GGGTATA, the “uncleaved DNA left (log2)” value turned out to be 0.0795.
On to ATGAGAC, for which the “uncleaved DNA left (log2)” value was determined as 0.0498.
Regarding AGGAAAG, the “uncleaved DNA left (log2)” value was 0.0188.
For the sequence CATCCCA, the “uncleaved DNA left (log2)” value was 0.101.
Turning to ATGTAGA, the “uncleaved DNA left (log2)” value was -0.0637.
On to GGTTCAA, for which the “uncleaved DNA left (log2)” value turned out to be 0.152.
As for TTACACA, the “uncleaved DNA left (log2)” value is 0.00171.
For GGTGCTC, the “uncleaved DNA left (log2)” value was determined as 0.022.
As for AGTCCGC, the “uncleaved DNA left (log2)” value was -0.0368.
With AAGCACA, the “uncleaved DNA left (log2)” value was found to be 0.0133.
The figure for TTAATGG is 0.205; for AACAATT it is -0.19; for GGCCCAA it is 0.346.
For CGGCCGG, the “uncleaved DNA left (log2)” value amounted to 0.0803.
As for AGAACCT, the “uncleaved DNA left (log2)” value turned out to be 0.228.
The figure for AATACAG is -0.0647; for GCTAGGT it is 0.145.
As to GATTATC, the “uncleaved DNA left (log2)” value worked out at 0.176.
Take TCCACCC: the “uncleaved DNA left (log2)” value is -0.105.
GAGGAGC: the “uncleaved DNA left (log2)” value was 0.221.
Regarding AGTCGTG, the “uncleaved DNA left (log2)” value came to 0.024.
Turning to GCATAGT, the “uncleaved DNA left (log2)” value is -0.234.
On to TCCGTGT, for which the “uncleaved DNA left (log2)” value came to 0.00797.
As for GTGACAG, the “uncleaved DNA left (log2)” value was -0.00745.
Consider AACTTGA, for which the “uncleaved DNA left (log2)” value is 0.0521.
As for CTCTCTG, the “uncleaved DNA left (log2)” value was -0.0435.
The figure for GAATTCA is -0.0494; for ACGGGGA it is -0.0819; for CCACTAG it is -0.0582.
For the sequence CTCCCAT, the “uncleaved DNA left (log2)” value turned out to be 0.0443.

The values above are taken from the supplement of paper PMC7826260.
